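In this assay, cells in 96-well plates receive the compound at five concentrations for 48 hours. Endpoints are linearly interpolated between the surrounding concentrations. At the GI50, growth is halved. TGI denotes the concentration required for complete inhibition of growth.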

In PubChem BioAssay (NCI) one finds GI50 and TGI data, which are given here for two molecules.

For this assay, the system named is NCI-H322M lung. Briefly: NCI anticancer screen, dose series, 48 h.

Turning to `C#Cc1ccc(C(=O)NCc2ccc(/C=C/C(=O)c3nccn3C)cc2)cc1`, the GI50 was 3.78 µM and the TGI is above 14.3 µM.

As to `CC(C)=CCc1c2c(c(O)c3c1O[C@]14C(=C[C@@H]5C[C@H]1C(C)(C)O[C@@]4(C/C=C(/C)C(=O)O)C5=O)C3=O)C=CC(C)(C)O2`, the GI50 is 15.4 µM and the TGI worked out at 30.2 µM.
